Results from PMC4336329 (PLoS ONE, 2015).
The campaign covered roughly 310,000 compounds. About 2,200 (0.71%) showed an effect of 50% or more. Effects have a minus sign here. This is one part of the list.

Biological target: human ether-à-go-go-related gene (hERG) potassium channel (human, UniProt Q12809)
Experiment: primary screen, population patch clamp on CHO cells stably expressing hERG

human ether-à-go-go-related gene (hERG) potassium channel, sequence (Q12809 whole entry, looked up): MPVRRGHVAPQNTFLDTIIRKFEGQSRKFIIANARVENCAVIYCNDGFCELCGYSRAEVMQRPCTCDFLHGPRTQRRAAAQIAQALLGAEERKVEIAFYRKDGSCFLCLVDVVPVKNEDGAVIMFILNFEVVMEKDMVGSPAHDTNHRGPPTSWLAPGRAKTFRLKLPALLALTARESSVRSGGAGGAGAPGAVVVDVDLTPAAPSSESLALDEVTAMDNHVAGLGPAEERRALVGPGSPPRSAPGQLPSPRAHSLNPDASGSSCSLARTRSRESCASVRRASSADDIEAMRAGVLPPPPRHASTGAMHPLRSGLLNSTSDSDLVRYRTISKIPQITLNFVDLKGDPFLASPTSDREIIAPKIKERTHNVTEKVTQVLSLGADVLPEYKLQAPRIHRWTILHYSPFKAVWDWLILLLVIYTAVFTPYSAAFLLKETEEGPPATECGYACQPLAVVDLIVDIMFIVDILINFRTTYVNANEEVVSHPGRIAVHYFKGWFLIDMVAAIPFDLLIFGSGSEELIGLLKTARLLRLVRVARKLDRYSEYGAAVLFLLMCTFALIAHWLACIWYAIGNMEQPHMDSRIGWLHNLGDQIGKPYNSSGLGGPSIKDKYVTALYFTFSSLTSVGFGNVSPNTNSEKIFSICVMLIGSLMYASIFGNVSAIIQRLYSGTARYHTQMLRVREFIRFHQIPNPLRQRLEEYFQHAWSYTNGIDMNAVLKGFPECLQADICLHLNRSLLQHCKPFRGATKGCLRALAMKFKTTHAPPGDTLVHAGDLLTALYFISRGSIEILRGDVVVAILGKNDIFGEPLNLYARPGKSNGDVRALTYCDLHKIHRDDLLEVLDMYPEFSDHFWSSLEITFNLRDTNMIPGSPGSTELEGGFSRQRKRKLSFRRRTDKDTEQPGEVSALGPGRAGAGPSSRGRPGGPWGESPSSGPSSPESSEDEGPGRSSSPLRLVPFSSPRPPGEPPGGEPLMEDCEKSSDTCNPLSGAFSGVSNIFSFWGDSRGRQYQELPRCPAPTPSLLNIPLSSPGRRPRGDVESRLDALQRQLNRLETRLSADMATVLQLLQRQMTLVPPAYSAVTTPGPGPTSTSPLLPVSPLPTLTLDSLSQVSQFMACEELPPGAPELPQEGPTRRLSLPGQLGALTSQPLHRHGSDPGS

Compound	hERG current change (%, negative = inhibition) at 1uM [%]
COc1cccc(C(=O)Nc2c3c(nn2-c2cccc(C)c2C)CS(=O)C3)c1OC (stereo not shown)	6.72
O=C(c1cn(-c2ccccc2)nc1-c1ccncc1)n1nnc2ccccc21	9.61
Cc1ccc(/C=C/S(=O)(=O)NCCC(=O)NCc2ccc(F)cc2)cc1	-1.98
O=C(CN1CCN(C(C(=O)Nc2ccc(F)cc2)c2ccccc2)CC1)NC1CC1 (stereo not shown)	-2.24
CN(C)S(=O)(=O)c1ccc(Cl)c(C(=O)NNC(=O)c2ccc3c(c2)OCO3)c1	17.2
Cc1cc(Br)c(S(=O)(=O)NCc2cccnc2)cc1C	8.27
CCN(CC)CC(=O)Nc1scc2c1c(=O)oc1ccccc12	10.6
O=C(Nc1cccc(C(F)(F)F)c1)c1cccnc1N1CCN(CCO)CC1	-26.4
Cc1nc(N2CCN(C(=O)c3ccco3)CC2)c2c3c(sc2n1)CCC3	-19.9
COC(=O)c1sc2nc(N)c(C#N)cc2c1N	17.8
O=C(c1cccc([N+](=O)[O-])c1)c1ccc2c(c1)C(=O)NC2=O	12.4
COc1ccc2c(c1)C=CC1(O2)N(CCO)c2ccccc2C1(C)C (stereo not shown)	10.4
Cc1sc2ncn(CC(=O)NCc3ccco3)c(=O)c2c1-c1ccc(F)cc1	10.3
COc1ccc(CN2CN=C(Nc3nc4ccccc4s3)NC2)cc1	-1.19
Fc1ccc(Cn2c(SCc3ccc(F)c(F)c3)nnc2C(F)(F)F)cc1	-14.5
Cc1ccc(NC(=S)N2CCN(S(C)(=O)=O)CC2)cc1	22.4
O=C(NC(C(=O)c1ccccc1)N1CCCCCC1)c1ccco1 (stereo not shown)	12.7
CC1(C)CC(NC(=O)CC(c2ccccc2)c2ccccc2)CC(C)(C)N1	2.61
CCOC(=O)C(Cc1cc(C(C)=O)ccc1OC(C)C)C(=O)OCC	9.86
O=C(OCc1cc2ccccc2[nH]c1=O)c1cccc([N+](=O)[O-])c1	1.84
Cc1ccc(C(C)NC(=O)Cc2cccs2)cc1C (stereo not shown)	-3.55
C[C@@H](C(=O)NCc1ccco1)N1C(=O)N2CCc3c([nH]c4ccccc34)[C@@]2(C)C1=O	1.69

Compound	hERG current change (%, negative = inhibition) at 1uM [%]
Cc1cc(NC(=O)c2ccco2)c(=O)n(Cc2cccc(C(F)(F)F)c2)c1	5.53
CCc1cccc(Nc2cc(C)nc3nc(C)nn23)c1	-10.1
COc1ccc(CCNC(=O)c2ccc(NC3=NC4CS(=O)(=O)CC4S3)cc2)cc1OC (stereo not shown)	20.4
CCOC(=O)c1c(NC(=O)c2ccco2)sc2c1CCCCC2	11.7
O=C(NCCS(=O)(=O)N1CCN(c2ccccc2)CC1)C1CC(=O)N(c2ccccc2)C1 (stereo not shown)	18
CC(C)(C)C(=O)Nc1nnc(-c2ccccc2)c(-c2ccccc2)n1	6
Fc1cccc(F)c1-n1c(CN2CCCCC2)csc1=S	12.3
Cn1c(=O)[nH]c2nnc(-c3ccc(Cl)c(Cl)c3)nc2c1=O	5.62
COc1ccccc1CNC(=O)/C=C/C(=O)O	9.93
c1ccc(CC2CCN(Cc3nc(-c4ccccc4)no3)CC2)cc1	3.83
NC(=O)COC(=O)Cc1coc2cc3c(cc12)CCC3	11.9
O=C(NCc1cccnc1)C(=O)NCC1OCCCN1S(=O)(=O)c1ccc(F)cc1 (stereo not shown)	14.4
CCOc1ccc(C2CC(c3ccc(CC)cc3)Nc3nc(N)nn32)cc1 (stereo not shown)	9.21
Cc1ccc(C(=O)/C=C/Nc2cccc([N+](=O)[O-])c2)o1	8.58
COC(=O)c1sccc1NC(=O)c1cc(-c2cc(C)ccc2C)nc2ccccc12	12.5
COc1ccc(NC(=O)c2sc3nc(C)cc(C)c3c2N)c(OC)c1	6.28
CCOC(=O)N1C=CC(C)=C[C@@H]2[C@@H](N3C(=O)c4ccccc4C3=O)C(=O)N21	3.34
Cc1ccc(CN2CCN(/N=C\C=C\c3ccccc3)CC2)cc1	12.6
OC(CN1CCC(Cc2ccccc2)CC1)c1ccccc1 (stereo not shown)	-13.3
CCOC(=O)C1(CCCc2ccccc2)CCN(C(=O)CCOC)CC1	2.47
CN(C)C(=O)c1cc([N+](=O)[O-])ccc1O	1.78
O=C(C1=C[C@H](c2ccccc2)C[C@H](OCCCCO)O1)N1CCN(Cc2ccccc2)CC1	-11.6

Compound	hERG current change (%, negative = inhibition) at 1uM [%]
Cn1c(=O)c2cc(S(=O)(=O)NCCC(=O)Nc3ccccc3F)ccc2n(C)c1=O	7.08
c1ccc(SCc2cc(-c3ccccc3)no2)cc1	8.73
CCCCNC(=S)Nc1ccc(Cl)cc1	2.75
CC(C)c1nc(SCC(=O)NCc2ccccc2)n[nH]1	11.5
Cc1cc([N+](=O)[O-])nn1CCCC(=O)Nc1ccc2c(c1)OCO2	16.8
Cc1[nH][nH]c(=O)c1N=Nc1ccccc1	14.4
C/C(=N\NC(=O)c1nn(C)c(C)c1Br)c1cccc(NC(=O)c2ccc(F)cc2)c1	12.6
CCc1ccc(-c2cc(C)no2)cc1S(=O)(=O)NCCc1ccccc1	11.1
CC(C)(C)n1nnnc1CN(Cc1ccco1)Cc1cc2cc3c(cc2[nH]c1=O)OCO3	4.25
COc1ccc(Cn2cnc3c(NS(C)(=O)=O)c(C)c(C)cc32)cc1	13.2
Cc1cc(NC(=O)C(C)C)n(-c2nc3ccccc3s2)n1	11.2
O=C(O)C1C2C=CC3(CN(C4CCCC4)C(=O)C13)O2 (stereo not shown)	1.94
CSCC[C@H](NC(=O)OC(C)(C)C)C(=O)N1CCC(C(=O)N[C@@H](C)C(=O)NC(C)c2ccccc2)CC1 (stereo partly shown)	18.5
O=C(NCCCN1CCOCC1)c1sc2cc(F)ccc2c1Cl	-15.6
CC(=O)Nc1cccc(-c2nc3ccc(NC(C)=O)cc3[nH]2)c1	3.05
CC(C)NC(=O)c1ccc(CNC(=O)OCC(F)(F)F)cc1	15.4
Cc1cccc(CCN(C(=O)Cc2cccs2)C(C(=O)NC2CCCCC2)c2cccnc2)c1 (stereo not shown)	9.13
CN(CC(=O)Nc1ccccc1Br)C(=O)C1CCN(C(=O)c2ccc(Cl)cc2)CC1	-23.5
Nc1ccccc1N=Nc1ccccc1N	-2.08
COc1ccccc1CC(=O)O/N=C(\N)c1ccccn1	12.4
CCc1ccc(Nc2n[n+](-c3ccccc3)c(-c3cccc(Cl)c3Cl)s2)cc1.[Cl-]	9.99
COc1ccc(NC(=O)Cn2c(=O)c(C)nc3ccccc32)cc1Cl	9.8

Compound	hERG current change (%, negative = inhibition) at 1uM [%]
Cc1ccc2occ(/C=N/NC(=O)c3ccncc3)c(=O)c2c1	9.76
CCc1ccc(OC(C)c2nnc(SCC(=O)Nc3ncccc3C)n2C)cc1 (stereo not shown)	9.38
C[N+](C)(C)CCOP(=O)([O-])OC[C@H](O)CO	14.6
COc1ccc(C(=O)NC2CC(C)(C)Cc3c2cnn3-c2ccccc2C)c(OC)c1OC (stereo not shown)	5.24
COc1ccc(CNC(=O)C2(c3ccc(Cl)cc3)CC2)cc1	8.11
CCOC(=O)N1CCN(S(=O)(=O)c2ccc(OCC)c3ccccc23)CC1	17.3
O=C(c1ccc(Cl)cc1[N+](=O)[O-])N(Cc1ccccc1)Cc1ccccc1	6.37
CCn1c(SCC(=O)Nc2cc(C)on2)nnc1-c1cccc(C)c1	12.3
CC1CCN(C(=O)c2ccccc2NC(=O)Cc2ccccc2)CC1	13.7
Nc1cc(S(=O)(=O)c2ccc(O)c(N)c2)ccc1O	14.3
O=C(CCSc1nc(-c2ccc3c(c2)OCO3)cc(C(F)(F)F)n1)NCc1ccccc1	13.4
Cc1cccc(-c2c3c(=O)n(C)c(=O)n(C)c3cn2C(C)C)c1	18.1
Cc1ccc(S(=O)(=O)Nc2cccc(C(=O)NCC(c3ccco3)N3CCCC3)c2)cc1F (stereo not shown)	1.99
CCOC(=O)C1=C(C)N(c2ccc(C)cc2)C(=O)/C1=C\c1cccs1	3.34
CN1CCN(c2nc3c(c(=O)n(C)c(=O)n3C)n2Cc2cccc(Br)c2)CC1	-41.4
COc1cc(OC)c(NC(=O)c2ccc(F)cc2)cc1Cl	8.38
C=CCN1C=C2C(=O)C(C)(OC(=O)c3ccco3)C(=O)C(C=C)=C2C=C1C1CC1 (stereo not shown)	6.19
O=C(Cc1cccs1)NCc1cccc(F)c1	17.2
O=C(CSc1nc(-c2ccccc2Cl)ns1)NCc1ccco1	3.46
CCC(C)n1c(=N)c(C#N)cc2c(=O)n3cccc(C)c3nc21 (stereo not shown)	-16.6
C=CC(=O)Nc1sc2c(c1C(N)=O)CCCC2	9.53
CCCC(=O)N(Cc1cc(=O)[nH]c2ccccc12)c1ccc(OC)cc1	17.2
